Laboratory results from the supplement of paper PMC3334620.
Over roughly 33,000 sequences, “E-score (-0.5 to 0.5)” has its median near -0.021; the highest 2% begin near 0.32. The list shows a part of the results.

These sequences were tested against T1, Zap1 (UniProt P47043) (assay: PBM E-score (8-mer binding enrichment) (E-score (-0.5 to 0.5)); higher = stronger / more preferred TF binding; most listed sequences are background and not binding sites). Details: protein concentration: 200 nM; construct: GST-full length.
T1 sequence: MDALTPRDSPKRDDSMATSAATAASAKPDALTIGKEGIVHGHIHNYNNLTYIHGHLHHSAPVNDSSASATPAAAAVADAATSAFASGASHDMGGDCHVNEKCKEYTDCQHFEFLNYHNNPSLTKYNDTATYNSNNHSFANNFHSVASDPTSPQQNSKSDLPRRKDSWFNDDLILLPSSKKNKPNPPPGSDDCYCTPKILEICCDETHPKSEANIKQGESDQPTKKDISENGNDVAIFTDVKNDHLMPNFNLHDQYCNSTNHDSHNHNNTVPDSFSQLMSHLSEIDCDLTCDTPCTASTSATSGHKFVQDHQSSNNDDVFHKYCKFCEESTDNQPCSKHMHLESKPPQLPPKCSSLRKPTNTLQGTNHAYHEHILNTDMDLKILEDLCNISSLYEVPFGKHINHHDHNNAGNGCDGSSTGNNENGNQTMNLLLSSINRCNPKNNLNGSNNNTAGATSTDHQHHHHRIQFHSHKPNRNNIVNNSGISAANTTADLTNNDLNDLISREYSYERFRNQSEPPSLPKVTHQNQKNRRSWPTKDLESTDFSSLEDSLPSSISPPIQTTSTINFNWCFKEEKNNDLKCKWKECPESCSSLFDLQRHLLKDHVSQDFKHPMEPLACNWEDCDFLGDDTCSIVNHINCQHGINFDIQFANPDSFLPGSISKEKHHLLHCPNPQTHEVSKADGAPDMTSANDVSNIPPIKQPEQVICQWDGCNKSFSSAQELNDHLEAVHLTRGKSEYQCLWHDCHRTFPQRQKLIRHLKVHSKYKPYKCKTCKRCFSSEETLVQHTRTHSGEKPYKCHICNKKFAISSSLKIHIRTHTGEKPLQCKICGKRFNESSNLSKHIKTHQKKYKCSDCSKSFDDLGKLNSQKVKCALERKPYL
Method: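 Universal 'all 10-mer' protein binding microarrays (Agilent AMADID 015681) probed with GST-tagged S. cerevisiae TFs (full-length or DBD) made by in vitro transcription/translation (PURExpress), about 100-200 nM. Bound TF was detected with fluorescent anti-GST. Each ungapped 8-mer (which stands for itself and its reverse complement) is scored by the PBM enrichment score (E-score), a modified Wilcoxon-Mann-Whitney statistic from -0.5 to +0.5, computed with the Universal PBM Analysis Suite. Scale: above 0.35 generally sequence-specific binding.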

Row | Sequence | PBM E-score
1 | CCGCCTGC | -0.117
2 | GAATTTAA | 0.0236
3 | GTCGCCAA | 0.0851
4 | TCACAACA | 0.245
5 | AGGTACAG | 0.0282
6 | AAGAACTA | 0.0816
7 | CATCTGTA | -0.157
8 | AGTGGCTC | -0.175
9 | CACCAACA | 0.0503
10 | TCGAGTCA | -0.21
11 | GATATTGA | -0.0969
12 | TAGAAACA | 0.228
13 | CTACGCAG | -0.225
14 | CGTCTGGC | -0.0743
15 | ATCGCAGC | -0.0336
16 | GCTGTAAA | 0.061
17 | AAACGGGG | -0.0125
18 | ATACACAA | 0.108
19 | AGGCTCCG | -0.128
20 | CCGGCAGC | -0.137
21 | CTTAATCA | 0.173
22 | AGCAGCGA | -0.068
23 | AACGTTGC | -0.161
24 | ACGACATA | -0.0747

Row | Sequence | PBM E-score
25 | GCAAACCC | 0.149
26 | AAACGGGT | 0.233
27 | GTAAGGGA | 0.0149
28 | CACCGCCC | 0.127
29 | CTTGCTGA | -0.0224
30 | CCTATAGG | 0.346
31 | ACACGGAT | 0.0123
32 | CGAGTGTA | -0.162
33 | CGCGAGTC | 0.0811
34 | CTAGGACA | -0.156
35 | AAGCTTCA | 0.0817
36 | ACAATACT | 0.172
37 | TGCATAAA | 0.125
38 | AGGACCTC | 0.154
39 | GGTTGTCA | 0.303
40 | AAGACTCT | -0.0702
41 | ACGGGGTA | 0.164
42 | ACTTCGTC | -0.132
43 | AGTTCCGA | 0.0267
44 | GCATTTGA | 0.0882
45 | CCGACTTC | -0.202
46 | AAAATTCC | -0.0327
47 | GTTTCCCA | 0.0656
48 | GATGCGAC | -0.187

Row | Sequence | PBM E-score
49 | CACGAAGC | -0.0938
50 | ACTTGCCT | -0.141
51 | CGCGGCAC | -0.13
52 | GAAACGTA | -0.085
53 | CCGAGGAC | -0.0983
54 | ACAGTCGT | -0.0567
55 | GAACAGCA | -0.127
56 | GTGGCGAA | 0.0832
57 | AAGCGACT | -0.149
58 | GCTCAACA | 0.0073
59 | ATGACAAC | 0.156
60 | TCAGGAGA | -0.0323
61 | CCGTAACG | 0.0821
62 | ACGGTATA | 0.104
63 | GAGGGAAC | -0.114
64 | GAGGTAAA | 0.199
65 | AACGTGTC | -0.19
66 | GGAGAGCC | -0.28
67 | CCGCTCAC | -0.079
68 | GCTTACAC | -0.14
69 | ACGTTGGG | -0.01
70 | ATCCTGCC | -0.256
71 | GGAACAAC | 0.134
72 | CCGTTTGA | -0.0881

Row | Sequence | PBM E-score
73 | CCGTCTGA | -0.18
74 | ACTTAAGA | 0.0625
75 | GTGCGGCA | -0.127
76 | ACAATAGC | -0.0302
77 | GAAACATA | 0.318
78 | AGGATGTC | -0.208
79 | CGATGACA | -0.0529
80 | CTGGCGGA | -0.209
81 | CTAGCCCA | -0.148
82 | AGTTCAGA | -0.0474
83 | AGGACCTG | -0.0461
84 | CGCTCACA | -0.0555
85 | ATCAGCTA | -0.0531
86 | ATAGACGA | -0.186
87 | CCATGAAG | -0.00194
88 | GCGCACTA | -0.183
89 | GCGCGCCC | -0.122
90 | AAGTGAAA | 0.0563
91 | ACTATTGC | -0.0494
92 | CTACAACA | -0.0355
93 | AATGCGCC | -0.312
94 | GGAAGGCA | -0.191
